{"source": "PubChem BioAssay (NCATS)", "note": "Inconclusive results, whose numbers are uncertain, are shown with a selection of clear calls. A potency beside an inconclusive call is a rough fit, not a confirmed value. Activity calls are given as the source filed them. Calls come from the whole dose curve; as a rule, active = well fitted inhibition curve with a large enough effect; inconclusive = small, poorly fitted or top-dose-only effect; inactive = flat fitted curve, though single readings scatter. Potency is the fitted concentration of half-maximal effect; tags give direction and shape of the fitted curve.", "data": [{"experiment": "Confirmatory screen GU Rhodamine qHTS for Zika virus inhibitors qHTS (AID 1347157); note: nearly all actives have a fitted effect of over 70% in size", "conditions": "purified enzyme assay, Rhodamine110 substrate fluorescence, 15 min", "excerpt": "Avindra Nath, Ph.D., National Institute of Neurological Disorders and Stroke (NINDS), Bethesda, MD\nRadhakrishnan Padmanabhan, Ph.D., Georgetown University (GU), Washington D.C.\nZika Virus causes congenital defects, including microcephaly and is associated with Guillain-Barre syndrome, eningoencephalitis and myelitis in infected adult. […] Using a target-based approach, we hope to establish a screening paradigm to uncover novel, cell-active NS2B-NS3 protease (Zika Virus) specific inhibitors from NCATS' collection of small molecules using qHTS.\nFour assay panel was created to identify potential Zika Virus inhibitors. Namely, (1) GU unlinked NS2B-NS3 AMC tagged protease qHTS, (2) GU unlinked NS2B-NS3 Rhodamine tagged protease qHTS, (3) NINDS linked NS2B-NS3 AMC tagged protease qHTS, (4) NINDS linked NS2B-NS3 Rhodamine tagged protease qHTS. Active compounds were re-acquired and re-screened to confirm inhibition. Inhibitors were further screened against various confirmatory and counterscreens in dose response format.\nEarly Translation Branch (ETB)\nNational Center for Advancing Translational Sciences (NCATS), Rockville, MD\nNational Institute of Health (NIH), Bethesda, Maryland\nPadmanabhan lab provided the NS2B hydrophilic domain and NS3 protease domain in a noncovalent complex used for the unlinked assay. Control compound aprotinin is obtained from Thermo Scientific (#78432; Waltham, Massachusetts). Rhodamine110 substrate ([N-Cbz]-Nle-Lys-Arg-Arg-Rhod110-Arg-Arg-Lys-Nle-[N-Cbz]) was purchased from either Genscript or Bachem.\n1536-well Protease (Rhodamine110 Substrate) Assay:\nBriefly, 3 microL of enzyme (25 nM final concentration), in assay buffer (10 mM Tris-HCl pH 8.0 with 0.01% Tween 20) were dispensed into a 1,536-well solid-bottom black plate (Greiner Bio One, Monroe, NC). Twenty-three nL of compounds (final concentration range 7.28 nM to 114 microM) or control Aprotinin (final concentration range 3.47 nM to 114 microM) were transferred via Wako Pin-tool (Wako Automation, Richmond, VA). Samples were incubated (room temperature, protected from light) for 15 minutes followed by a 1 microL Rhodamine110 substrate addition (1.5 microM final concentration). Plates were then immediately read on a ViewLux High-throughput CCD imager (PerkinElmer, Waltham, MA) equipped with FITC fluorescence optics (480(20) nm excitation, 540(25) nm emission), then incubated (room temperature, protected from light) for 15 minutes (~15% conversion). The change in fluorescence intensity over the 15-minute reaction period was normalized against no-inhibitor and no-enzyme controls and the resulting percent inhibition data were fitted to a 4-parameter Hill equation. Aprotinin was used as intraplate control.", "values": [{"smiles": "COc1ncc(Nc2ncc([C@@H](C)N3CCN(S(C)(=O)=O)CC3)cc2-c2nc(C)nc(N)n2)cc1F", "Potency": "inconclusive: 55.5 µM [inhibitor, single point]"}, {"smiles": "CN(C)CCOc1cc(NS(=O)(=O)c2c(Cl)cc(C(F)(F)F)cc2Cl)ccc1Cl", "Potency": "inconclusive: 27.8 µM [inhibitor, partial curve]"}, {"smiles": "CC1(C)CCC(C)(C)c2cc3c(cc21)Sc1ccccc1N=C3c1ccc(C(=O)O)cc1", "Potency": "active: 1.56 µM"}, {"smiles": "O=[N+]([O-])c1cccc2[nH]c(CNc3nc(N4CCOCC4)nc4c3ncn4-c3ccsc3)nc12", "Potency": "inconclusive: 44.1 µM [inhibitor, partial curve]"}, {"smiles": "O=C(Nc1ccc(-c2ccc(Cl)c(Cl)c2)cc1)C1=C(O)c2ccccc2S(=O)(=O)N1", "Potency": "active: 2.48 µM"}, {"smiles": "C=C1C(=O)O[C@H]2CC(=C)[C@H]3CC[C@@](C)(O)[C@@H]3CC12", "note": "(stereo not given in full)", "Potency": "inconclusive: 15.6 µM [inhibitor, full curve]"}, {"smiles": "O=C(Nc1ccc(Oc2ccc(Cl)cc2)c(Cl)c1)c1cc(I)cc(I)c1O", "Potency": "active: 6.31 µM"}, {"smiles": "CCCCCCCOc1cc2c(cc1/C(C)=C/c1ccc(C(=O)O)cc1)C(C)(C)CCS2(=O)=O", "Potency": "active: 1.97 µM"}, {"smiles": "O=[N+]([O-])c1ccc(-c2nc(-c3ccc(F)cc3)c(-c3ccncc3)[nH]2)cc1", "Potency": "inconclusive: 62.2 µM [inhibitor, single point]"}, {"smiles": "O=C1OC2(c3ccccc31)c1cc(I)c(O)c(I)c1Oc1c2cc(I)c(O)c1I", "Potency": "inconclusive: 35.5 µM [inhibitor, partial curve, poor fit]"}]}]}
